Data taken from PubChem BioAssay AID1508642 (National Center for Advancing Translational Sciences (NCATS), 2021).
Out of some 43,000 compounds screened, about 200 (0.47%) were called active. About 12% were inconclusive and are not listed. Calls come from the whole dose curve; as a rule, active = well fitted cell-killing curve with a large enough effect; inconclusive = small, poorly fitted or top-dose-only effect, or effect the other way; inactive = flat fitted curve, though single readings scatter. This is one part of the list.

Test: Cell viability qHTS assay in S16 Pmp22-F2sN cells; note: nearly all actives have a fitted effect of over 65% in size
Conditions: S16 Pmp22-F2sN Schwann cells (luciferase reporters placed in the Pmp22 gene) viability, CellTiter-Glo, 24 h; series mostly up to 57.5 µM; activity change, negative = cytotoxicity: at the top concentration
Procedure, shortened: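 Rat S16 Schwann reporter line, 24 h treatment with library compounds delivered at 23 nL per well. Cell viability by CellTiter-Glo luminescence.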
% is set by controls: 0 for no effect and ±100 for the full control effect.

| Structure (SMILES) | activity change, negative = cytotoxicity |
| --- | --- |
| CCCSc1ncc(Cl)c(C(=O)Nc2ccc(S(=O)(=O)Nc3ncccn3)cc2)n1 | inactive: 1.75% |
| Cc1cccc(NC(=O)C(=O)NCC(c2ccc3c(c2)OCO3)N2CCOCC2)c1C (stereo unspecified) | inactive: -9.55% |
| COc1cc(OC)cc(C(=O)Oc2c(Sc3ccccc3)c(C)nn2C(C)(C)C)c1 | inactive: -13.1% |
| Cc1cn2c(=O)cc(COC(=O)c3cccc(NC(=O)COc4ccccc4Cl)c3)nc2s1 | inactive: 12.9% |
| CC(C)CCNC(=O)CCCN1C(=O)c2ccccc2Sc2ncccc21 | inactive: 8.89% |
| COc1cc(-c2noc(CN3CCN(c4ccccc4)CC3)n2)cc(OC)c1OC | inactive: 1.1% |
| CN1CCN(C(CNC(=O)c2cccc(F)c2)c2ccc3c(c2)OCO3)CC1 (stereo unspecified) | inactive: 9.37% |
| CCOc1ccc(-n2c(Cc3ccccc3)nnc2SCc2nc(-c3ccccc3OC)no2)cc1 | inactive: -11.9% |
| Cc1cc(C)c(NC(=O)C2CCN(c3nc4ccccc4[nH]3)CC2)c(C)c1 | inactive: 19.7% |
| O=C(Nc1cccs1)Nc1cc(C(F)(F)F)ccc1Cl | inactive: -27.5% |
| Cc1ccc(Cl)cc1N1CCN(C(=O)c2cnc(N3CCOCC3)c3ccccc23)CC1 | inactive: -22.2% |
| Cc1ccccc1-n1c(SCC(=O)Nc2ccc(Cl)cc2F)nnc1-c1cc2occc2n1C | inactive: 4.97% |
| CCc1ccc(NC(=O)CN2CCN(Cc3ccccc3)S2(=O)=O)cc1 | inactive: -20.4% |
| CCOC(=O)C1CCN(c2ncnc3c2c(-c2ccccc2)cn3-c2cccc(C)c2)CC1 | inactive: 3.75% |
| Cc1oc2c(c(C)cc3oc(=O)c(CC(=O)NCCc4ccccc4F)c(C)c32)c1C | inactive: 17.1% |
| Cc1ccc(Cn2c(C(=O)O)c(CNCc3ccccc3Cl)c3ccc(C)cc32)cc1 | inactive: 4.53% |
| COc1cccc(NC(=O)CSc2nc3c(oc4ccccc43)c(=O)n2Cc2ccco2)c1 | inactive: -4.87% |
| O=C(Nc1ccc2oc(-c3cccnc3)nc2c1)c1cccc(Br)c1 | inactive: -5.39% |
| Cc1ccc(N(CC(=O)NCCc2ccc(Cl)cc2)S(=O)(=O)N(C)C)cc1 | inactive: -3.39% |
| Cc1ccc(-c2nc3cc(C(C)C)ccc3o2)cc1NC(=O)c1cc2ccccc2o1 | inactive: -11.3% |
| CCc1ccc(CNC(=O)c2sc3ncccc3c2-n2c(C)ccc2C)cc1 | inactive: -18.3% |
| CCOc1ccccc1CNS(=O)(=O)c1ccc2c(c1)CCCN2C(C)=O | inactive: 2.85% |
| O=C(Cn1ccn(-c2ccc(F)c(F)c2)c(=O)c1=O)Nc1ccccc1F | inactive: -0.617% |
| Cc1ccc(OCC(=O)Nc2ccc(S(=O)(=O)Nc3cc(C)nc(C)n3)cc2)c(Br)c1 | inactive: -3.72% |

| Structure (SMILES) | activity change, negative = cytotoxicity |
| --- | --- |
| Cc1ccc(C)n1-c1nnc(N2CCCC(C(=O)NCc3ccc(Cl)cc3)C2)s1 (stereo unspecified) | inactive: -13.5% |
| Cc1ccc(CN2CCc3nc(N4CCN(c5ncccn5)CC4)ncc3C2)cc1 | inactive: -19.8% |
| CCCc1nn2c(=O)cc(COC(=O)c3cccc(NC(=O)COc4ccc(F)cc4)c3)nc2s1 | inactive: 1.2% |
| CCOC(=O)c1scc(-c2ccccc2)c1S(=O)(=O)Nc1ccccc1F | inactive: 15.3% |
| CC(C)c1ccc(C2N3CC4(C)CN2CC(c2ccccc2)(C3)C4=O)cc1 (stereo unspecified) | inactive: -3.5% |
| Cc1ccccc1NC(=O)c1ccc(F)c(S(=O)(=O)N(C)Cc2ccccc2)c1 | inactive: 1.39% |
| Cc1nc(-c2ccc(Cl)cc2)sc1CCNC(=O)C(=O)Nc1ccc(F)cc1F | inactive: 10.5% |
| Cc1cc(C)c(Cn2c3ccccc3c3cnn(CC(=O)NC4CCC(C)CC4)c(=O)c32)c(C)c1 (stereo unspecified) | inactive: 3.45% |
| O=C(O)c1cc(NC2(c3ccccc3)C(=O)c3ccccc3C2=O)ccc1Cl | inactive: 10.1% |
| O=C(Cn1c(=O)oc2cc(S(=O)(=O)N3CCCCC3)ccc21)Nc1cccc(Cl)c1 | inactive: 15.4% |
| CCCCN1C(=O)c2[nH]nc(-c3ccccc3O)c2C1c1cccc(OCc2ccccc2)c1 (stereo unspecified) | inactive: 1.92% |
| Cc1ccc2[nH]c(=O)c3cc(C(=O)N4CCN(c5ccccc5)CC4)sc3c2c1 | inactive: -0.272% |
| Cc1cccc(C(=O)Nc2sc3c(c2C(=O)NCc2ccco2)CCCC3)c1 | inactive: -0.0051% |
| COc1cccc(NC(=O)NCc2ccc3c(c2)CCN3C(=O)c2ccccc2)c1 | inactive: 3.5% |
| CCN(CC)S(=O)(=O)c1ccc2c(c1)N(CC(=O)NCCCN1CCN(c3ccccc3F)CC1)C(=O)CO2 | inactive: -17.6% |
| COC(=O)c1sccc1S(=O)(=O)N1CCN(c2ccccc2)CC1 | inactive: 14% |
| CCOc1ccc(CCNC(=O)CCc2c(C)nc3c4c(C)cc(C)nc4nn3c2C)cc1 | inactive: 1.31% |
| COc1ccc(Cl)cc1NC(=O)CSc1nnc(C)n2c1cc1occc12 | inactive: -6.78% |
| Cc1cc(NC(=O)C2CCCN(S(=O)(=O)c3ccc(Br)s3)C2)ccc1Br (stereo unspecified) | inactive: -7.67% |
| COc1ccc(CC(=O)Nc2ccc(-c3nc4ccccc4s3)cc2Cl)cc1 | inactive: 1.45% |
| Cc1ccc(CCNC(=O)CN2C(=O)COc3ccc(S(=O)(=O)N4CCC(C)CC4)cc32)cc1 | inactive: -2.29% |
| CCN1CCN(C(c2cccc(Cl)c2)c2c(O)cc(C)n(CCOC)c2=O)CC1 (stereo unspecified) | inactive: 4.23% |
| Cc1cc(OCC(=O)NCC2(N(C)C)CCCCC2)cc(C)c1Cl | inactive: 1.53% |
| COc1cccc(C2=NS(=O)(=O)N(C)C(C(=O)Nc3cccc(O)c3)=C2)c1 | inactive: -1.45% |

| Structure (SMILES) | activity change, negative = cytotoxicity |
| --- | --- |
| CCn1cc(C(=O)NCCCN(CC(C)C)CC(C)C)c(=O)c2cc(S(=O)(=O)N3CCc4ccccc4C3)ccc21 | inactive: -5.58% |
| Cc1ccc(-c2nnc(SCC(=O)NCCC(C)C)nc2-c2ccc(C)cc2)cc1 | inactive: -19% |
| CCCCN1C(=O)C(O)(c2c(C)[nH]c3ccccc23)c2cc(Br)ccc21 (stereo unspecified) | inactive: -1.74% |
| Cc1cc2nn(-c3ccc(F)cc3)nc2cc1NC(=O)c1cc(Cl)ccc1Cl | inactive: -3.97% |
| CCCN(CCC)c1nn2c(=O)c(C(=O)NCc3cccc(OC)c3)cnc2s1 | inactive: 7.45% |
| O=C(NCc1ccccc1)C(=O)NCC(c1ccco1)S(=O)(=O)c1ccccc1 (stereo unspecified) | inactive: 10.7% |
| COc1ccc(N2CCN(C(CNC(=O)C(=O)NCc3ccc(F)cc3)c3cccnc3)CC2)cc1 (stereo unspecified) | inactive: -19.2% |
| CCc1ccc(NC(=O)N(Cc2c[nH]c3ccccc23)C2CCCCCC2)cc1 | inactive: -24.2% |
| Cc1sc(-c2cc3ccccc3oc2=O)nc1-c1ccc(Cl)cc1 | inactive: -25.9% |
| COC(=O)c1cc(S(=O)(=O)N2CCN(c3ccc(C)cc3C)CC2)cn1C | inactive: 15.2% |
| Cc1ccc(-c2cc(C(=O)Oc3ccccc3)c3cccc(C)c3n2)cc1 | inactive: 4.84% |
| COc1ccc(NC(=O)c2sc3nc[nH]c(=O)c3c2C)cc1 | inactive: 1.8% |
| O=C1CN(C(=O)C2CCCCC2)C(c2ccccc2)c2cc(F)ccc2N1 (stereo unspecified) | inactive: -16.4% |
| CCOc1ccc(C2c3c(oc4ccc(C)cc4c3=O)C(=O)N2c2nc(C)c(C)s2)cc1OC (stereo unspecified) | inactive: -1.54% |
| COc1ccc(-c2noc(-c3ccc(N4CCCCC4)c([N+](=O)[O-])c3)n2)cc1 | inactive: 5.09% |
| CCCCCCOc1ccc(-c2nc3ccc(Br)cc3c(=O)o2)cc1 | inactive: 17% |
| O=C1CC(c2ccccc2)Cc2[nH]c(=O)c(-c3nc(-c4ccc(F)cc4)cs3)cc21 (stereo unspecified) | inactive: -10.6% |
| CC(C)Oc1ccc(CNC(=O)C2COc3ccccc3C2)cc1 (stereo unspecified) | inactive: 1.7% |
| O=C(CN1C(=O)COc2ccc(S(=O)(=O)N3CCCC3)cc21)N1CCN(c2ccccc2F)CC1 | inactive: -13.3% |
| Cc1ccccc1-c1nc(CS(=O)CC(=O)NCCc2ccc(Cl)cc2)c(C)o1 (stereo unspecified) | inactive: -0.739% |
| Cc1ccc(C)c(CSc2c(C(C)C)cnc3c2c(=O)n(C)c(=O)n3C)c1 | inactive: -1.72% |
| CN1CCN(C(=O)c2cnn(-c3cccc(F)c3)c2C2CCN(C(=O)OC(C)(C)C)CC2)CC1 | inactive: 15.3% |
| CC(C)c1ccc(CNc2nc(-c3ccco3)nn2S(=O)(=O)c2ccccc2)cc1 | inactive: -9.18% |
| Cc1csc2nc(COc3ccc(NC(=O)COc4ccc(F)cc4)cc3)cc(=O)n12 | inactive: 10.2% |

| Structure (SMILES) | activity change, negative = cytotoxicity |
| --- | --- |
| CCOc1ccc(/C=C/c2nc(C#N)c(N(C)C)o2)cc1 | inactive: -0.199% |
| COc1ccc(N2CCN(C(CNC(=O)c3ccc(C)cc3)c3ccc4c(c3)OCO4)CC2)cc1 (stereo unspecified) | inactive: -3.13% |
| CCOC(=O)c1cc(-c2ccc(C)cc2)n(CCC(=O)NCc2ccccc2)c1C | inactive: 10.2% |
| Cc1ccc(-c2nc3scc(CCNS(=O)(=O)c4ccc(C)c(C)c4)n3n2)cc1 | inactive: 7.15% |
| Cc1ccc(-c2noc(-c3cccnc3NCc3ccc(Cl)cc3)n2)cc1 | inactive: 2.89% |
| Cc1cccc(OCC(=O)Nc2ccc(C(=O)OCc3cc(=O)n4nc(C5CC5)sc4n3)cc2)c1 | inactive: 10.8% |
| COC(=O)c1ccc(NC(=O)CSc2ccc(-c3cccs3)nn2)cc1 | inactive: -7.74% |
| C#CCOc1ccc(C2C(C(=O)OC)=C(C)NC3=C2C(=O)c2ccccc23)cc1OCC (stereo unspecified) | inactive: -4.03% |
| CCOc1ccc(Sc2cc(C(=O)NCCCOC)c3ccccc3n2)cc1 | inactive: -4.17% |
| CCc1ccc(NC(=O)C(Cc2ccccc2)NS(=O)(=O)c2ccc3c(c2)CCN3C(C)=O)cc1 (stereo unspecified) | inactive: -12.7% |
| Cc1cc(C)c(NC(=O)c2cc(CN3CCOCC3)on2)c(C)c1 | inactive: -4.49% |
| COc1ccc2cc(S(=O)(=O)c3ccccc3F)c(=O)oc2c1 | inactive: 1.15% |
| Cc1cccc(C)c1NC(=O)C1CCCN(S(=O)(=O)c2c(C)noc2/C=C/N(C)C)C1 (stereo unspecified) | inactive: -0.28% |
| COc1ccccc1CNC(=O)c1ccc(NC(=O)N2CC(C)Sc3ccccc32)cc1 (stereo unspecified) | inactive: 8.89% |
| CCOc1ccc(NC(=O)CSc2nnc(CC)c(CC)n2)cc1 | inactive: -3.62% |
| O=C(Nc1nnc(S(=O)(=O)N2CCCCC2)s1)c1ccc(Cl)cc1 | inactive: 1.36% |
| CC(=O)Nc1ccc(NS(=O)(=O)c2ccc3c(c2)CCCN3C(C)=O)cc1 | inactive: 3.14% |
| CCc1ccc(-c2[nH]c3c(c2-c2c(-n4cccc4)n(C)c(=O)[nH]c2=O)c(=O)[nH]c(=O)n3C)cc1 | inactive: 1.18% |
| COc1ccc(-n2ncc(C(=O)Nc3ccc(C)cc3Cl)c2C2CCN(C(=O)OC(C)(C)C)CC2)cc1 | inactive: -28.8% |
| COc1ccc(N2CC(NC(=O)c3cccs3)CC2=O)cc1OC (stereo unspecified) | inactive: 9.54% |
| O=C(Nc1ccc(F)cc1)c1ccc(-n2cnnc2)cc1 | inactive: 20% |
| CC1(C)CC(=O)c2cc(C(=O)Nc3ccc(Br)cc3)c(=O)n(-c3ccc(Cl)cc3)c2C1 | inactive: 2.09% |
| COCCCn1c(=N)c(S(=O)(=O)c2ccccc2)cc2c(=O)n3cccc(C)c3nc21 | inactive: 21.4% |
| Cc1ccc(C2c3cccn3CCN2S(=O)(=O)c2ccc([N+](=O)[O-])cc2)cc1 (stereo unspecified) | inactive: -21.9% |
